# The inconclusive results got no clear call from the source; some entries with a clear call stand among them for comparison. Potencies beside an inconclusive call are fits to weak or partial responses and may not hold up. The source made the active and inactive calls. The call rests on the fitted dose curve; in most records, active means well fitted cell-killing curve with a large enough effect in the repeat runs; inconclusive means weak or mixed curves, or effect the other way; inactive means no such curve, though single readings can be large or run the other way.
# Assay: qHTS assay to identify small molecule antagonists of the glucocorticoid receptor (GR) signaling pathway - cell viability counter screen (AID 720693); further: nearly all actives have a fitted effect of over 55% in size
# Conditions: GR-bla HeLa viability, CellTiter-Glo luminescence, 18 h, with 5 nM dexamethasone present; viability change, negative = cytotoxic: at 58.5 µM (top of the series) unless noted
# On the % scale 0 is the no-effect control and ±100 the full control effect; potency means the concentration at half of the fitted maximal effect; tags describe the fitted curve by direction and shape.
SMILES,Potency,"viability change, negative = cytotoxic"
CC(C)OC(=O)CCCCC(=O)OC(C)C,"inconclusive: 55.1 µM [cytotoxic, single point]",
Cc1nc2ccccc2n1Cc1ccc(Cl)cc1,"inconclusive: 7.56 µM [rising, partial curve, poor fit]",
CCCCc1ccc(N)cc1,,inactive: 11.1%
FC(F)(F)C(Cl)Br (configuration not stated),inactive,
C=CC(=O)OCC(C)OCC(C)OCC(C)OC(=O)C=C (configuration not stated),"inconclusive: 54.9 µM [cytotoxic, single point]",
CC(CCO)CC(C)(C)C (configuration not stated),"inconclusive: 1.1 µM [rising, single point]",
NC(N)=NC(=O)Cc1c(Cl)cccc1Cl,,inactive: -0.833%
C=CC(=O)NCOCCCC,,inconclusive: 1.71% [at 78.9 µM]
O=C(O)C1=NN(c2ccc(S(=O)(=O)O)cc2)C(=O)C1,inactive,
CC[C@H](C)[C@@H](C(=O)O)n1sc2ccccc2c1=O,"inconclusive: 11 µM [rising, full curve, poor fit]",
CCCCCCCC(=O)OCC(COC(=O)CCCCCCC)OC(=O)CCCCCCC,inactive,
CCCCCCCCCCCC[N+](C)(C)CC(=O)[O-],"inconclusive: 0.49 µM [rising, single point]",
CC(=O)OCc1ccc2c(c1)OCO2,inactive,
Nc1ccc2ccccc2c1S(=O)(=O)O,"inconclusive: 0.499 µM [rising, single point]",
CCCOC(=O)c1ccc(N)cc1,"inconclusive: 4.77 µM [rising, full curve]",
COC(=O)c1ccc(I)cc1S(=O)(=O)NC(=O)Nc1nc(C)nc(OC)n1,,inactive: -5.86%
CCOc1ccc(NS(=O)(=O)c2ccc(N)cc2)nn1,"inconclusive: 0.0756 µM [rising, single point]",
COc1cc2c(Nc3ccc(Br)cc3F)ncnc2cc1OCC1CCN(C)CC1,active: 23.9 µM,
Cc1ccc2c(Cl)cc(Cl)c(O)c2n1,active: 23.9 µM,
OCCN1C[C@H](O)[C@@H](O)[C@H](O)[C@H]1CO,"inconclusive: 10.7 µM [rising, single point]",

SMILES,Potency,"viability change, negative = cytotoxic"
Cc1ccc(C)c([N+](=O)[O-])c1,"inconclusive: 0.432 µM [rising, full curve]",
CN(C)CCOC1=Cc2ccccc2Sc2ccc(Cl)cc21,"inconclusive: 26.8 µM [cytotoxic, single point]",
CO[C@@]1(NC(=O)CSCC#N)C(=O)N2C(C(=O)O)=C(CSc3nnnn3C)CS[C@@H]21,,inactive: 10.9%
O=C(O)c1cc(N=Nc2ccc(S(=O)(=O)Nc3ccccn3)cc2)ccc1O,"inconclusive: 0.169 µM [rising, partial curve, poor fit]",
C#CCOC(=O)[C@@H](C)Oc1ccc(Oc2ncc(Cl)cc2F)cc1,"inconclusive: 54.7 µM [rising, single point]",
CN1CCC(=C2c3ccccc3Sc3ccccc32)CC1,"inconclusive: 26.8 µM [cytotoxic, single point]",
OCCSc1ccccc1,,inactive: -6.5%
CCCCC(CC)COC(=O)CS (configuration not stated),inactive,
O=C(O)CNC(=O)CNC(=O)CNC(=O)CSC(=O)c1ccccc1,,inactive: 3.48%
O=C1O[C@H]([C@@H](O)CO)C(O)=C1O,"inconclusive: 19.5 µM [rising, partial curve, poor fit]",
COc1ccc2cc(CCC(C)=O)ccc2c1,,inactive: 13.4% [at 27 µM]
O=C(O)C(Cc1cc(I)c(O)c(I)c1)c1ccccc1 (configuration not stated),"inconclusive: 0.0952 µM [rising, single point]",
Clc1ccc(Cn2c(CN3CCCC3)nc3ccccc32)cc1,,inactive: -0.59% [at 27 µM]
O=C(O)Cc1sc(-c2ccccc2)nc1-c1ccc(Cl)cc1,"inconclusive: 5.35 µM [rising, full curve, poor fit]",
Oc1ccc(O)c2c(O)cccc12,"inconclusive: 0.193 µM [rising, single point]",
Cc1[nH]c(C)c(Cl)c(=O)c1Cl,,inactive: -2.86%
C=Cc1ccc(C)cc1,"inconclusive: 0.0225 µM [rising, full curve, poor fit]",
O=[N+]([O-])c1ccc(O)cc1C(F)(F)F,"inconclusive: 38.9 µM [cytotoxic, partial curve, poor fit]",
Nc1ncn([C@H]2C[C@H](O)[C@@H](CO)O2)c(=O)n1,,inactive: -1.07%

# Assay: qHTS assay for identifying genotoxic compounds that show differential cytotoxicity against isogenic chicken DT40 cell lines with known DNA damage response pathways - wild type cell line (AID 743012); further: nearly all actives have a fitted effect of over 60% in size
# Conditions: DT40 wild type chicken cells viability, CellTiter-Glo, 40 h; activity change, negative = cytotoxicity: at 68.4 µM (top of the series) unless noted
# Summary of the method: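 Parental DNA repair-proficient DT40 cells, 300 per well, were pre-incubated ~0.5 h at 37 C/5% CO2, pin-dosed with compounds in DMSO, then incubated 40 h. Viability was read as CellTiter-Glo luminescence after 30 min at room temperature.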
SMILES,Potency,"activity change, negative = cytotoxicity"
CC(C)OC(=O)CCCCC(=O)OC(C)C,"inconclusive: 68.7 µM [cytotoxic, single point]",
Cc1nc2ccccc2n1Cc1ccc(Cl)cc1,active: 2.11 µM,
CC(CCO)CC(C)(C)C (configuration not stated),,inconclusive: 39.1% [at 95 µM]
NC(N)=NC(=O)Cc1c(Cl)cccc1Cl,"inconclusive: 29.8 µM [cytotoxic, single point]",
C=CC(=O)NCOCCCC,inactive,
O=C(O)C1=NN(c2ccc(S(=O)(=O)O)cc2)C(=O)C1,"inconclusive: 19.3 µM [rising, partial curve, poor fit]",
CC[C@H](C)[C@@H](C(=O)O)n1sc2ccccc2c1=O,,inactive: -1.9%
CCCCCCCCCCCC[N+](C)(C)CC(=O)[O-],active: 27.3 µM,
CC(=O)OCc1ccc2c(c1)OCO2,"inconclusive: 0.546 µM [rising, partial curve, poor fit]",
COc1cc2c(Nc3ccc(Br)cc3F)ncnc2cc1OCC1CCN(C)CC1,active: 5.31 µM,
C#CCOC(=O)[C@@H](C)Oc1ccc(Oc2ncc(Cl)cc2F)cc1,"inconclusive: 12.1 µM [rising, full curve, poor fit]",
CCCCC(CC)COC(=O)CS (configuration not stated),"inconclusive: 61.1 µM [cytotoxic, single point]",
O=C(O)CNC(=O)CNC(=O)CNC(=O)CSC(=O)c1ccccc1,"inconclusive: 18.8 µM [rising, partial curve, poor fit]",
COc1ccc2cc(CCC(C)=O)ccc2c1,"inconclusive: 14.3 µM [cytotoxic, partial curve, poor fit]",
O=C(O)Cc1sc(-c2ccccc2)nc1-c1ccc(Cl)cc1,"inconclusive: 33.5 µM [cytotoxic, single point]",
Cc1[nH]c(C)c(Cl)c(=O)c1Cl,,inactive: -0.214%
C=Cc1ccc(C)cc1,"inconclusive: 0.998 µM [rising, partial curve, poor fit]",
Nc1ncn([C@H]2C[C@H](O)[C@@H](CO)O2)c(=O)n1,active: 0.106 µM,

# Reference: PubChem BioAssay (Tox21)
